Data as given in PubChem BioAssay AID463173 (ICCB-Longwood Screening Facility, Harvard Medical School, 2010).
In all, about 52,000 compounds went through this assay and about 4,300 (8.3%) were called active. No stated cut-off is given here; in the data, active means survival mostly below about 52% (no sharp cut-off); inactive means mostly above about 56%. This is one part of the list.

What follows are compounds tested on DeltatarO mutant (assay: growth inhibition of S. aureus wild type versus tarO mutant, primary screen, teichoic acid synthesis inhibitors, RN4220, OD600 (AID 463173)). Settings: OD600, 18 h, active compounds read low, screened at 18.75 µg/mL (by protocol).

Compound | survival
O=c1c(N2CCN(c3cccc(C(F)(F)F)c3)CC2)csc2ccc(Cl)cc12 | inactive: 95%
Cc1ccccc1CSc1nc2c(sc3ccccc32)c(=O)n1CCCOC(C)C | inactive: 130%
COC(=O)c1cc2oc3ccccc3c2n1Cc1cc(C)ccc1C | inactive: 130%
Cc1cccc(-n2ncc3c(NC4CCCC4)ncnc32)c1 | inactive: 69%
COc1cccc(CNC(=O)C2CCN(c3nnc(-n4c(C)ccc4C)s3)CC2)c1 | inactive: 89%
CCc1ccc(-n2nc3ccc(NC(=O)c4ccc(C#N)cc4F)cc3n2)cc1 | inactive: 78%
Fc1ccc(-c2cn3cc(Cc4ccc(Cl)cc4)sc3n2)cc1 | inactive: 55%
CCOc1ccc(-c2nnc(SCC(=O)NCc3ccc(C)cc3)nc2-c2ccc(OCC)cc2)cc1 | inactive: 106%
CC1(C)Oc2ccc(C(=O)Nc3ccccc3)cc2N(CC(=O)N2CCCC2)C1=O | inactive: 103%
S=C(Nc1ccccn1)c1ccccc1 | inactive: 76%
CCOc1ccccc1C1CC(=O)Oc2c1c(=O)n(C)c1ccccc21 (configuration not stated) | inactive: 57%
Cc1ccc(Cl)cc1NC(=O)Cn1c(=O)c2ccccc2n2nncc12 | inactive: 93%
CCC(C(=O)Nc1cc(-c2nc3cccnc3s2)ccc1C)c1ccccc1 (configuration not stated) | active: 37%
O=C(Cn1c(SCC(=O)Nc2nccs2)nc2ccccc21)NCc1ccccc1 | inactive: 78%
CC(=O)c1ccc(N2CCN(S(=O)(=O)c3ccc4[nH]c5c(c4c3)CCCC5)CC2)cc1 | inactive: 64%
O=c1c2c(-c3ccc(Cl)cc3)ccnc2[nH]n1-c1ccccc1 | inactive: 67%
O=C(NCCC1=CCCCC1)c1ccc2c(c1)ncn2-c1ccc(F)c(F)c1 | inactive: 66%
COc1ccc(OC)c(C2c3c(oc4ccc(C)cc4c3=O)C(=O)N2CCCN(C)C)c1 (configuration not stated) | inactive: 73%
CCc1ccc(Nc2nc(N)nc(CSc3nc4ccccc4s3)n2)cc1 | active: 21%

Compound | survival
CCN(Cc1ccccc1)Cc1c(O)ccc2c(=O)c(-c3ccccc3Cl)c(C(F)(F)F)oc12 | inactive: 74%
CC(=O)Nc1cccc(NC(=O)c2c(-c3ccccc3)c(-c3ccccc3)nn(C)c2=O)c1 | inactive: 53%
CCCN(CCC)C(=O)CSc1nc2sc3c(c2c(=O)n1-c1ccccc1)CCN(C(C)=O)C3 | inactive: 178%
CCc1ccccc1NS(=O)(=O)c1ccc2c(c1)OCC(C(=O)N1CCCC1)O2 (configuration not stated) | inactive: 74%
CCOCc1cc(CN2CCN(c3cccc(Cl)c3)CC2)c(O)c2ncccc12 | inactive: 55%
O=C(CCC1CCCC1)N1CCN(C(=O)Cc2ccccc2)CC1 | inactive: 94%
CCOc1ccc(CNC(=O)c2ccc(Sc3ccc(Cl)cc3)c(NC(C)=O)c2)cc1OC | inactive: 80%
COc1ccc2oc(=O)c(C(N)=O)cc2c1 | inactive: 88%
CCS(=O)(=O)c1nc(S(=O)(=O)c2ccc(Cl)cc2)c(NCc2ccccc2Cl)s1 | inactive: 69%
O=C(NC1CCCC1)C(c1ccc(O)cc1)N(C(=O)Cn1nnc(-c2cccs2)n1)C1CCCC1 (configuration not stated) | inactive: 97%
Cc1ccccc1-c1nc2cc(NC(=O)COc3ccc(F)cc3)ccc2o1 | inactive: 56%
CC1=C(C(=O)Nc2ccc(C)cc2C)C(c2ccccc2)n2ncc(C(=O)Nc3ccccc3)c2N1 (configuration not stated) | inactive: 58%
CCOC(=O)c1c(-c2ccccc2)csc1NC(=O)c1cc(-c2ccc(Cl)cc2)on1 | inactive: 67%
Cc1c(CC(=O)NCCc2ccc(Cl)cc2)c(=O)oc2c(C)c3occ(C(C)(C)C)c3cc12 | inactive: 60%
Cc1ccc(NC(=O)C2CCCN(S(=O)(=O)c3cccc4cccnc34)C2)c(C)c1 (configuration not stated) | inactive: 78%
COC(=O)c1ccc2c(=O)n(CCCCCC(=O)N3CCN(c4ccc(OC)cc4)CC3)c(=O)[nH]c2c1 | inactive: 55%
CCOC(=O)c1sc(NC(=O)c2cc(-c3ccc(F)cc3)on2)c(C(=O)OCC)c1C | inactive: 65%
CCOC(=O)CSc1nc2ccc(NC(=O)c3ccccc3F)cc2s1 | inactive: 66%
CCc1nonc1NC(=O)c1oc2ccccc2c1C | inactive: 70%

Compound | survival
O=C(NC(NC(=O)c1ccco1)c1ccc(Br)cc1)c1ccco1 | inactive: 77%
CCOc1cc(C2c3c(-c4ccc(Br)cc4)n[nH]c3C(=O)N2c2ccc(Cl)cc2)ccc1O (configuration not stated) | active: 35%
O=C1C2c3ccccc3CCN2C(=O)CN1CCc1ccccc1 (configuration not stated) | inactive: 109%
COc1ccc(CNC(=O)CCS(=O)(=O)c2ccc3c(c2)oc(=O)n3C)cc1 | inactive: 75%
CCN(CC)C(=O)CSc1nnc(COc2ccc(C)cc2)n1N | inactive: 95%
CC1(C)CC(=O)C=C(Nc2ccccc2F)C1 | inactive: 80%
CCCCC(CC)CNC(=O)c1ccc2c(=O)n(Cc3ccc(OC)cc3)c(=O)[nH]c2c1 (configuration not stated) | inactive: 84%
Cn1nc(C(=O)NCc2ccc(Cl)cc2)c2c1-c1ccccc1SC2 | inactive: 78%
Cc1cc(=O)n2nc(N3CCC(C(=O)Nc4ccc(C)c(Cl)c4)CC3)sc2n1 | inactive: 101%
COc1ccc(CNC(=O)Cc2c(C)c3c(cc(C)c4c(C)c(C)oc43)oc2=O)cc1 | inactive: 93%
CCSc1ncc(Cl)c(C(=O)Nc2nc3ccc(OC)cc3s2)n1 | inactive: 83%
CCOc1ccc(NC(=O)C(NS(=O)(=O)c2ccc3c(c2)CCN3C(C)=O)C(C)C)cc1 (configuration not stated) | inactive: 124%
O=C(CSc1nc2ccccc2nc1Cc1ccc(Cl)cc1)NCCc1ccccc1 | inactive: 69%
CCOc1ccccc1NC(=O)c1nnn(CC(=O)Nc2ccc(OC)c(OC)c2)c1N | inactive: 91%
Cc1ccc(CNC(=O)c2ccc3c(O)c(S(=O)(=O)c4ccccc4)c(=O)[nH]c3c2)cc1 | inactive: 94%
CCOC(=O)N1CCC(NC(=O)c2ccc3c(c2)N(Cc2ccc(F)cc2)C(=O)c2ccccc2S3(=O)=O)CC1 | inactive: 98%
CCOc1ccccc1CC1C(=O)Nc2ccc(Br)cc21 (configuration not stated) | inactive: 59%
COc1cccc(CNC(=O)C(NS(=O)(=O)c2ccc3c(c2)CCN3C(C)=O)C(C)C)c1 (configuration not stated) | inactive: 80%
COc1ccc(OC)c(C(C)NC(=O)Cn2c(=O)cc(C)c3c(C)nn(-c4ccc(C)cc4)c32)c1 (configuration not stated) | inactive: 55%
